# Experimental data published in the supplement of paper PMC8728848.
# Some of the results follow.
# B1: TREM-2 (Mus musculus), Q99NH8 (protein)
# chain: MGPLHQFLLLLITALSQALNTTVLQGMAGQSLRVSCTYDALKHWGRRKAWCRQLGEEGPCQRVVSTHGVWLLAFLKKRNGSTVIADDTLAGTVTITLKNLQAGDAGLYQCQSLRGREAEVLQKVLVEVLEDPLDDQDAGDLWVPEESSSFEGAQVEHSTSRNQETSFPPTSILLLLACVLLSKFLAASILWAVARGRQKPGTPVVRGLDCGQDAGHQLQILTGPGGT
# What was measured:
# Experiment in all cases: glycan array binding signal (z-score within array); higher = stronger binding
# Conditions in all cases: glycan notation: IUPAC condensed, linker removed
# [1] = target: GlcNAc(b1-4)GlcNAc(b1-4)GlcNAc(b1-4)GlcNAc(b1-4)GlcNAc
# Summary of the method: (§1)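 Glycan array data were curated from 3228 arrays in the Consortium for Functional Glycomics database and kept only where the protein sequence was available. Glycan names were converted to IUPAC-condensed notation, and columns mapping to the same glycan were averaged. The binding signal is a within-array Z-score, averaged across arrays of the same protein sequence at different concentrations or buffers and across linkers. Negative Z-scores can be read as non-binding.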
# [2] = target: GlcNAc(b1-4)GlcNAc(b1-4)GlcNAc(b1-4)GlcNAc(b1-4)GlcNAc(b1-4)GlcNAc
# Summary of the method: as §1
# [3] = target: GlcNAc(b1-4)[GlcNAc(b1-6)]GalNAc
# Summary of the method: as §1
# [4] = target: GlcNAc(b1-6)Gal(b1-4)GlcNAc
# Summary of the method: as §1
# GlcNAc(b1-6)GalNAc = target: GlcNAc(b1-6)GalNAc
# Summary of the method: as §1
# Kdn(a2-3)Gal(b1-3)GlcNAc = target: Kdn(a2-3)Gal(b1-3)GlcNAc
# Summary of the method: as §1
# Kdn(a2-3)Gal(b1-4)GlcNAc = target: Kdn(a2-3)Gal(b1-4)GlcNAc
# Summary of the method: as §1
# [5] = target: Man(a1-2)Man(a1-2)Man(a1-3)Man
# Summary of the method: as §1
# [6] = target: Man(a1-2)Man(a1-2)Man(a1-6)[Man(a1-3)]Man
# Summary of the method: as §1
# Man(a1-2)Man(a1-3)Man = target: Man(a1-2)Man(a1-3)Man
# Summary of the method: as §1
# [7] = target: Man(a1-2)Man(a1-3)[Man(a1-2)Man(a1-6)]Man
# Summary of the method: as §1
# [8] = target: Man(a1-2)Man(a1-3)[Man(a1-2)Man(a1-6)]Man(a1-6)[Man(a1-2)Man(a1-2)Man(a1-3)]Man(b1-4)GlcNAc(b1-4)GlcNAc
# Summary of the method: as §1
# [9] = target: Man(a1-2)Man(a1-3)[Man(a1-6)]Man(a1-6)[Man(a1-2)Man(a1-3)]Man(b1-4)GlcNAc(b1-4)GlcNAc
# Summary of the method: as §1
# [10] = target: Man(a1-2)Man(a1-6)[Man(a1-3)]Man(a1-6)[Man(a1-2)Man(a1-2)Man(a1-3)]Man(b1-4)GlcNAc(b1-4)GlcNAc
# Summary of the method: as §1
# Man(a1-3)[Man(a1-6)]Man = target: Man(a1-3)[Man(a1-6)]Man
# Summary of the method: as §1
# [11] = target: Man(a1-3)[Man(a1-6)]Man(a1-6)[Man(a1-2)Man(a1-3)]Man(b1-4)GlcNAc(b1-4)GlcNAc
# Summary of the method: as §1
# [12] = target: Man(a1-3)[Man(a1-6)]Man(a1-6)[Man(a1-3)]Man(b1-4)GlcNAc(b1-4)GlcNAc
# Summary of the method: as §1
# [13] = target: Man(a1-3)[Man(a1-6)]Man(b1-4)GlcNAc(b1-4)GlcNAc
# Summary of the method: as §1
# Man(b1-4)GlcNAc = target: Man(b1-4)GlcNAc
# Summary of the method: as §1
# Neu5Ac(a2-3)Gal = target: Neu5Ac(a2-3)Gal
# Summary of the method: as §1
# [14] = target: Neu5Ac(a2-3)Gal(b1-3)GalNAc
# Summary of the method: as §1
# [15] = target: Neu5Ac(a2-3)Gal(b1-3)GalNAc(b1-3)Gal(a1-4)Gal(b1-4)Glc
# Summary of the method: as §1
# [16] = target: Neu5Ac(a2-3)Gal(b1-3)GalNAc(b1-3)Gal(b1-4)GlcNAc
# Summary of the method: as §1
# [17] = target: Neu5Ac(a2-3)Gal(b1-3)GalNAc(b1-4)[Neu5Ac(a2-3)]Gal(b1-4)Glc
# Summary of the method: as §1
# [18] = target: Neu5Ac(a2-3)Gal(b1-3)GalNAc6S
# Summary of the method: as §1
# [19] = target: Neu5Ac(a2-3)Gal(b1-3)GlcNAc
# Summary of the method: as §1
# [20] = target: Neu5Ac(a2-3)Gal(b1-3)GlcNAc6S
# Summary of the method: as §1
# [21] = target: Neu5Ac(a2-3)Gal(b1-3)[Fuc(a1-4)]GlcNAc
# Summary of the method: as §1
# [22] = target: Neu5Ac(a2-3)Gal(b1-3)[Fuc(a1-4)]GlcNAc(b1-3)Gal(b1-4)[Fuc(a1-3)]GlcNAc
# Summary of the method: as §1
# [23] = target: Neu5Ac(a2-3)Gal(b1-3)[Neu5Ac(a2-3)Gal(b1-4)]GlcNAc
# Summary of the method: as §1
# [24] = target: Neu5Ac(a2-3)Gal(b1-3)[Neu5Ac(a2-6)]GalNAc
# Summary of the method: as §1
# Neu5Ac(a2-3)Gal(b1-4)Glc = target: Neu5Ac(a2-3)Gal(b1-4)Glc
# Summary of the method: as §1
# [25] = target: Neu5Ac(a2-3)Gal(b1-4)GlcNAc
# Summary of the method: as §1
# [26] = target: Neu5Ac(a2-3)Gal(b1-4)GlcNAc(b1-2)Man(a1-3)[Neu5Ac(a2-3)Gal(b1-4)GlcNAc(b1-2)Man(a1-6)]Man(b1-4)GlcNAc(b1-4)GlcNAc
# Summary of the method: as §1
# [27] = target: Neu5Ac(a2-3)Gal(b1-4)GlcNAc(b1-3)Gal(b1-4)GlcNAc
# Summary of the method: as §1
# [28] = target: Neu5Ac(a2-3)Gal(b1-4)GlcNAc(b1-3)Gal(b1-4)GlcNAc(b1-3)Gal(b1-4)GlcNAc
# Summary of the method: as §1
# [29] = target: Neu5Ac(a2-3)Gal(b1-4)GlcNAc(b1-3)Gal(b1-4)[Fuc(a1-3)]GlcNAc
# Summary of the method: as §1
binder,measurement,setting,value
B1,glycan array binding signal (z-score),[1],-0.348
same,glycan array binding signal (z-score),[2],-0.251
same,glycan array binding signal (z-score),[3],-0.383
same,glycan array binding signal (z-score),[4],-0.382
same,glycan array binding signal (z-score),GlcNAc(b1-6)GalNAc,-0.493
same,glycan array binding signal (z-score),Kdn(a2-3)Gal(b1-3)GlcNAc,-0.274
same,glycan array binding signal (z-score),Kdn(a2-3)Gal(b1-4)GlcNAc,-0.376
same,glycan array binding signal (z-score),[5],-0.305
same,glycan array binding signal (z-score),[6],-0.263
same,glycan array binding signal (z-score),Man(a1-2)Man(a1-3)Man,-0.367
same,glycan array binding signal (z-score),[7],-0.326
same,glycan array binding signal (z-score),[8],-0.321
same,glycan array binding signal (z-score),[9],-0.255
same,glycan array binding signal (z-score),[10],-0.114
same,glycan array binding signal (z-score),Man(a1-3)[Man(a1-6)]Man,-0.332
same,glycan array binding signal (z-score),[11],-0.168
same,glycan array binding signal (z-score),[12],-0.131
same,glycan array binding signal (z-score),[13],-0.261
same,glycan array binding signal (z-score),Man(b1-4)GlcNAc,-0.217
same,glycan array binding signal (z-score),Neu5Ac(a2-3)Gal,-0.303
same,glycan array binding signal (z-score),[14],-0.209
same,glycan array binding signal (z-score),[15],-0.359
same,glycan array binding signal (z-score),[16],-0.209
same,glycan array binding signal (z-score),[17],-0.368
same,glycan array binding signal (z-score),[18],0.919
same,glycan array binding signal (z-score),[19],-0.319
same,glycan array binding signal (z-score),[20],-0.078
same,glycan array binding signal (z-score),[21],-0.351
same,glycan array binding signal (z-score),[22],0.087
same,glycan array binding signal (z-score),[23],-0.316
same,glycan array binding signal (z-score),[24],-0.233
same,glycan array binding signal (z-score),Neu5Ac(a2-3)Gal(b1-4)Glc,0.131
same,glycan array binding signal (z-score),[25],-0.391
same,glycan array binding signal (z-score),[26],-0.327
same,glycan array binding signal (z-score),[27],-0.376
same,glycan array binding signal (z-score),[28],-0.297
same,glycan array binding signal (z-score),[29],-0.312
